Out of some 370,000 compounds screened, about 150 (0.041%) were called active. Inconclusive results, whose numbers are uncertain, are shown with a selection of clear calls. Calls come from the whole dose curve; as a rule, active = well fitted inhibition curve with a large enough effect; inconclusive = small, poorly fitted or top-dose-only effect; inactive = flat fitted curve, though single readings scatter. Potencies of inconclusive entries are left out as doubtful fits.
What follows are compounds tested against Beta-lactamase (Escherichia coli (strain K12)) (UniProt P00811) (assay: qHTS Inhibitors of AmpC Beta-Lactamase (assay with detergent)). Details: AmpC hydrolysis of nitrocefin, absorbance 480 nm, 0.01% Triton; series mostly up to 114 µM.
Chain of UniProt P00811 (P00811 whole entry, looked up): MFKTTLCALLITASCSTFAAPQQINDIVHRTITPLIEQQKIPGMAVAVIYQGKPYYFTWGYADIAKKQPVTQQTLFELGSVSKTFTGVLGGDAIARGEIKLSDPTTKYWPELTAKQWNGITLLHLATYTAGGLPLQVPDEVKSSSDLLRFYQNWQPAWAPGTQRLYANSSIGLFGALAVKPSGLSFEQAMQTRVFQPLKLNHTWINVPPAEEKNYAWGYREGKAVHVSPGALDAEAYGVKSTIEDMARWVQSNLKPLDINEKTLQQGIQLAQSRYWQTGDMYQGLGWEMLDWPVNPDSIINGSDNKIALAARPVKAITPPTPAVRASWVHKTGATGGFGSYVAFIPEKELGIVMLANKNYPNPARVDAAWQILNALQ
How it was run: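 20 mM phosphate pH 7.0 + 0.01% (detergent screen) or 0.0001% Triton X-100; 5.3 nM AmpC reagent; cpd preinc 15 min RT; nitrocefin (800 uM stock) to start; A480 q20 s × 4 min; Activity was normalised to no-enzyme and no-compound control wells.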
With `O=C(CSc1nnc(-c2ccc(O)cc2)o1)NNC(=O)c1ccncc1` the Potency was “inactive”. `NC(=O)c1cc(S(=O)(=O)NCCc2ccc(Cl)cc2)cs1` was tested, and the Potency was inconclusive [inhibitor, partial curve]. `CN(CC(=O)NCCC1=CCCCC1)S(=O)(=O)c1ccc2c(c1)c(=O)n(C)c(=O)n2C` was tested, and the Potency was inconclusive [inhibitor, partial curve, poor fit]. In the case of `c1ccc2c(N3CCOCC3)nc(N3CCOCC3)nc2c1`, the Potency is reported as “inactive”. `Cc1cc(-c2nc3cccnc3s2)ccc1NS(=O)(=O)c1ccc2c(c1)OCCO2` was tested, and the Potency was inconclusive [inhibitor, full curve]. `O=C(c1ccc2c(c1)OCO2)N1CCN=C1SCc1cccnc1` was tested, and the Potency was inconclusive [inhibitor, full curve]. With `CCCCSCCCNC(=O)CN1C(=O)c2cccnc2Oc2ccc(Cl)cc21` the Potency was “inactive”. For `O=C(Nc1ccc(CN2CCOCC2)cc1)c1ccc(Cl)cc1Cl`, the Potency was “inactive”. `Cc1ccccc1-c1nc(CS(=O)(=O)CC(=O)N(C)C2CCCCC2)c(C)o1` was tested, and the Potency was inconclusive [inhibitor, full curve, poor fit]. For `Cc1coc(C)c1C(=O)CC1(O)C(=O)Nc2cc(Cl)cc(Cl)c21` (centres undefined), the Potency was inconclusive [inhibitor, full curve]. With `ONC=Nc1cccc2nonc12` the Potency was inconclusive [inhibitor, partial curve, poor fit]. In the case of `CCN(CC)S(=O)(=O)c1cccc(S(=O)(=O)c2cccc(S(=O)(=O)N(CC)CC)c2)c1`, the Potency is reported as inconclusive [inhibitor, full curve, poor fit]. `O=C(NCc1ccco1)c1ccc(-c2cccc(Cl)c2)o1` was tested, and the Potency was “inactive”. `COc1ccccc1-c1nn2c(-c3ccccc3Cl)nnc2s1` was tested, and the Potency was inconclusive [inhibitor, full curve, poor fit]. `Cn1cc([N+](=O)[O-])c(C(=O)Nc2ccc3nc(-c4ccccc4)[nH]c3c2)n1` was tested, and the Potency was inconclusive [inhibitor, full curve]. `COc1ccccc1C(=O)N/C(=C\c1ccc(Br)cc1)C(=O)NCC(=O)O` was tested, and the Potency was inconclusive [inhibitor, full curve, poor fit]. In the case of `CCOC(=O)c1nnn2c1nc(SCC(C)=O)c1ccccc12`, the Potency is reported as inconclusive [inhibitor, full curve, poor fit]. For `CCOC(=O)c1c(C)[nH]c(C(=O)N/N=C\c2ccccc2Cl)c1C`, the Potency was “inactive”. In the case of `CCN(CC)C(=O)CSc1nc(N)c2c3c(sc2n1)CC(C)CC3` (centres undefined), the Potency is reported as “inactive”.

Reference: PubChem BioAssay AID485294 (National Center for Advancing Translational Sciences (NCATS), 2010)
Note: nearly all actives have a fitted effect of over 25% in size.
Potency is the fitted concentration of half-maximal effect; tags give direction and shape of the fitted curve.
